Data: PubChem BioAssay AID1460 (National Center for Advancing Translational Sciences (NCATS), 2008)
Several values for one entry are separate records, joined by “and”; a condition that tells them apart may be missing. Identical values can stand only once. The whole screen tested about 270,000 compounds, of which about 5,800 (2.1%) were called active. Inconclusive means that the source gave no clear call. Such entries were picked first, then a sample of the others. Calls come from the whole dose curve; as a rule, active = well fitted inhibition curve with a large enough effect; inconclusive = small, poorly fitted or top-dose-only effect; inactive = flat fitted curve, though single readings scatter. A potency beside an inconclusive call is a rough fit, not a confirmed value.

target: Microtubule-associated protein tau (Homo sapiens) (UniProt P10636); assay: qHTS for Inhibitors of Tau Fibril Formation, Thioflavin T Binding; conditions: recombinant tau K18 P301L, heparin-induced fibrillization, ThT fluorescence; series mostly up to 57.4 µM; note: nearly all actives have a fitted effect of over 55% in size
How it was run: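 ThT emission at 510 nm, taken 1 hr after adding 30 uM dye, quantifies aggregates formed when 20 uM heparin acts on human tau K18 P301L for 6 hr at 37 C.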
Potency is the fitted concentration of half-maximal effect; tags give direction and shape of the fitted curve.

Chain of UniProt P10636 (P10636 whole entry, looked up): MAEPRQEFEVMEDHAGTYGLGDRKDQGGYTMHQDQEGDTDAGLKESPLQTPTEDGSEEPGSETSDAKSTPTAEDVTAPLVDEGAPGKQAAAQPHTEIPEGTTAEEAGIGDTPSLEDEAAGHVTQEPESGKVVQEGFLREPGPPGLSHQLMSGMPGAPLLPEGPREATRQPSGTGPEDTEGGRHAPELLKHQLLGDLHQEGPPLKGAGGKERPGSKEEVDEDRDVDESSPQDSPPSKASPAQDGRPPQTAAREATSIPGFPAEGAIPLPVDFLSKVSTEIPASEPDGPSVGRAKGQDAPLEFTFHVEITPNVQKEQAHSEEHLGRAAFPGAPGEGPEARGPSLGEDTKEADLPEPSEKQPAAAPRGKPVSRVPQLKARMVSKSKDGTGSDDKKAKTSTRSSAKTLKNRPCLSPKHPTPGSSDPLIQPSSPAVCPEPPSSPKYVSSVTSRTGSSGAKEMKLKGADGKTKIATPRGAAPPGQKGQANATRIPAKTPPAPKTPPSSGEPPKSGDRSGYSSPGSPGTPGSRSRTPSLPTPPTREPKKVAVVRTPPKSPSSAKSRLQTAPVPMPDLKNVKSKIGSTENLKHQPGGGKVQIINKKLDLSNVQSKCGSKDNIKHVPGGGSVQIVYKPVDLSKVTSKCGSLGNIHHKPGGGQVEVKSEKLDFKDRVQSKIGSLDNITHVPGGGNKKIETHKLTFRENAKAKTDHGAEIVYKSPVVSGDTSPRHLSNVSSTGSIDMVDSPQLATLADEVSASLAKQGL

Row | Structure (SMILES) | Potency
1 | COC(=O)c1cc2oc3ccccc3c2n1CC(=O)Nc1ccc(C)c(F)c1 | inactive
2 | Oc1ccc(Nc2nc(-c3ccc(Cl)cc3)cs2)cc1 | active: 3.98 µM
3 | Cc1ccccc1CSc1ncnc2ccccc12 | inconclusive: 35.5 µM [inhibitor, single point]
4 | CCn1nc(C(=O)OCC(=O)N2CCc3ccccc32)c2ccccc2c1=O | inconclusive: 35.5 µM [inhibitor, partial curve, poor fit]
5 | COc1ccccc1C(=O)NNC(=O)c1nn(Cc2ccccc2)c(=O)c2ccccc12 | inconclusive: 31.6 µM [inhibitor, single point]
6 | COc1ccc(S(=O)(=O)NN=C2CCCCC2)cc1 | inactive
7 | COc1cc2oc(=O)cc(-c3ccc(-c4cccc(N)c4)cc3)c2c(OC)c1OC | inconclusive: 20 µM [inhibitor, partial curve]
8 | Cc1ccc(OCc2nc(C#N)c(N3CCN(Cc4ccccc4)CC3)o2)cc1 | inactive
9 | CCOC(=O)c1c(C)[nH]c(C)c1S(=O)(=O)NCC(=O)Nc1ccc(C)c(N(C)C)c1 | inactive
10 | COc1cc2c(=O)c(C(=O)c3ccc(C)c(C)c3)cn(Cc3ccc(F)cc3)c2cc1OC | inconclusive: 11.2 µM [inhibitor, partial curve, poor fit]
11 | CC1CCN(CCCCOc2cccc(Br)c2)CC1 | inactive
12 | COc1ccc(NC(=O)Cn2c(=O)n(CCc3ccccc3)c(=O)c3c4c(sc32)CCCC4)cc1 | inactive
13 | C/C=C(\C)C(=O)O[C@H]1C[C@@]2(C)CCC(C(C)C)C2(O)CC[C@@]1(C)O (some centres undefined) | inconclusive: 22.4 µM [inhibitor, partial curve, poor fit]
14 | COC(=O)c1ccc(CSc2nnnn2-c2ccccc2)o1 | inactive
15 | CCOC(=O)C1CCN(C(=O)COC(=O)c2ccc3c(c2)C(=O)N(c2ccc(OCC)cc2)C3=O)CC1 | inconclusive: 14.1 µM [inhibitor, partial curve]
16 | CNc1cc(NS(=O)(=O)c2ccc(N)cc2)nc(NC)n1 | inconclusive: 15.8 µM [inhibitor, partial curve] and inconclusive: 8.91 µM [inhibitor, partial curve, poor fit]
17 | COC(=O)c1cc2ccccn2c2c(C(=O)OC)c(C(=O)OC)cc1-2 | inconclusive: 3.55 µM [inhibitor, full curve]
18 | Cc1ccc(N=C2SC(C(=O)NCCc3ccccc3)CC(=O)N2C)cc1C (centres undefined) | inactive
19 | COc1ccc(-c2ccc(CCC(=O)O)n2C(C)C)cc1 | inconclusive: 3.55 µM [inhibitor, partial curve, poor fit]
20 | O=C(Nc1cccc(F)c1)c1ccccc1-c1ccccc1 | inactive
21 | COc1ccc(CSCC(=O)Nc2ccccc2SC)cc1 | inconclusive: 31.6 µM [inhibitor, single point]
22 | CC(=O)C(Sc1nc(N(C)C)nc(N(C)C)n1)C(=O)Nc1ccccc1 (centres undefined) | inconclusive: 31.6 µM [inhibitor, single point]

Row | Structure (SMILES) | Potency
23 | COc1ccc(NC(=S)Nc2cccc3cnccc23)cc1 | inconclusive: 22.4 µM [inhibitor, single point]
24 | COc1ccc(S(=O)(=O)Nc2cccc(-c3ccc(N4CCC(C)CC4)nn3)c2)c(OC)c1 | inactive
25 | FC(F)(F)c1cc(C(F)(F)F)c2ccc(N3CCN(c4ccc(Cl)cc4)CC3)nc2n1 | inconclusive: 15.8 µM [inhibitor, partial curve]
26 | O=C(CN1C(=O)c2ccccc2S1(=O)=O)Nc1ccccc1 | inactive
27 | O=C(N/N=C\c1ccc(OCC(=O)N2CCCC2)cc1)C(=O)Nc1ccccc1F | inconclusive: 4.47 µM [inhibitor, full curve]
28 | Cc1cc(C2=NNC(=Nc3ccc(S(=O)(=O)N4CCOCC4)cc3)SC2)c(C)n1C | inconclusive: 3.98 µM [inhibitor, partial curve]
29 | O=C(CCCCn1c(=O)c2ccccc2n(CC(=O)Nc2cccc(C(F)(F)F)c2)c1=O)NCc1ccc2c(c1)OCO2 | inconclusive: 15.8 µM [activator, partial curve]
30 | CCc1nn2c(-c3ccccc3OC)ccnc2c1-c1ccccc1 | inconclusive: 20 µM [inhibitor, partial curve]
31 | Cc1c(Cl)cccc1NC(=O)Cn1c(=O)n(Cc2ccco2)c(=O)c2sc3ccccc3c21 | inactive
32 | CCN1C(=O)/C(=C2\SC(=S)N(NC(=O)c3ccccc3O)C2=O)c2ccccc21 | active: 20 µM
33 | CC(C)Oc1ccc(C(=O)NC2=NCCS2)cc1 | inactive
34 | CCN1/C(=C2\C(=O)N(C)C(=S)N2c2ccccc2)C=Cc2ccccc21 | inconclusive: 25.1 µM [inhibitor, single point]
35 | CC(=O)c1ccc(NC(=O)COC(=O)c2nc(Cl)ccc2Cl)cc1 | inconclusive: 12.6 µM [inhibitor, partial curve, poor fit]
36 | Cc1[nH]c2ccccc2c1CC#N | inactive
37 | COc1cccc(Cn2c(=O)cc(C)c3c(C)nn(C)c32)c1 | inconclusive: 39.8 µM [inhibitor, single point]
38 | CCCc1nn2c(=O)cc(COC(=O)c3cccc(NC(=O)c4cccs4)c3)nc2s1 | inactive
39 | C=CC12C=CC=CN1C(C(=O)OC)=C(C(=O)OC)C(C(=O)OC)=C2C(=O)OC (centres undefined) | inconclusive: 12.6 µM [inhibitor, partial curve]
40 | O=C(O/N=C1\CCCc2ccccc21)c1cccc(Cl)c1 | inconclusive: 39.8 µM [inhibitor, single point]
41 | COc1cc(/C=N/NC(=O)c2cccc([N+](=O)[O-])c2)ccc1OC(=O)c1ccco1 | inconclusive: 12.6 µM [inhibitor, partial curve]
42 | C/C=C/c1ccc(OCc2cc(=O)n3cc(C)ccc3n2)c(OC)c1 | inconclusive: 3.16 µM [inhibitor, full curve]
43 | CCC1CN(S(=O)(=O)c2cc(-c3cc(C)no3)ccc2C)c2cc(Cl)ccc2O1 (centres undefined) | inactive
44 | CC(/C=C/c1ccco1)=N\NC(=O)c1cc(C)[nH]n1 | inconclusive: 28.2 µM [inhibitor, partial curve]
